Displacement data for 107 compounds are collected here from PubChem BioAssay AID1240 (Sanford-Burnham Center for Chemical Genomics, 2008).

Out of some 50,000 compounds screened, about 800 (1.6%) showed an effect of 50% or more. The list shows a part of the results.

In this experiment the target is Bcl-2-like protein 10 (Homo sapiens) (UniProt Q9HD36). The experiment is described as follows: Phenotype converters, Bcl-B/TR3 peptide binding displacement, primary biochemical FP (AID 1240).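 Further: 0% = Bcl-B with tracer peptide and DMSO and 100% = tracer peptide lacking Bcl-B.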 Conditions: GST-Bcl-B / FITC-TR3 peptide fluorescence polarization; stronger effect = higher value; compound at 3.75 mg/L.
Chain of UniProt Q9HD36 (Q9HD36 whole entry, looked up): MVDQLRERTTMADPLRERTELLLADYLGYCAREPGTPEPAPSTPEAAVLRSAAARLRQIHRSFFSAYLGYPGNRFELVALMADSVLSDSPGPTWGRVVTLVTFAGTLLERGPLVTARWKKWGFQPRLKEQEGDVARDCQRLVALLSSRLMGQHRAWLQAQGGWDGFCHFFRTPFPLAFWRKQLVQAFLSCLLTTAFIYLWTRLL
`COc1cc(/C=C(\C#N)c2nc(-c3ccc(-c4ccccc4)cc3)cs2)ccc1O`: the displacement turned out to be 112%. In the case of `COc1ccccc1N1CCN(C(=O)c2ccccc2Oc2ccccc2)CC1`, the displacement came out at 10%. On to `Brc1ccccc1OCCCn1ccnc1`, for which the displacement amounted to 5.8%. On to `NC(=O)c1cccc(N=Cc2c(O)ccc3ccccc23)c1`, for which the displacement is -0.3%.

As for `COc1ccc(CCNC2CC(=O)N(c3ccc(I)cc3)C2=O)cc1OC` (configuration not stated), the displacement is 2.3%.

With `CSc1ccc(/C=c2\sc3nc4ccccc4n3c2=O)cc1`, the displacement was found to be 7.3%.

For the compound `CCOC(=O)c1c(NC(=O)COc2cccc(C)c2C)sc2c1CCC2`, the displacement was -5.3%. The value for `Cc1ccccc1OCCNc1cc(N2CCCC2)ccc1[N+](=O)[O-]` was -4.9%; that for `Cc1cc(C)nc(SCC(=O)Nc2ccc(C)c(NC(=O)CSc3nc(C)cc(C)n3)c2)n1` was 23.5%; that for `N#C/C(=C\c1ccc(-c2ccc([N+](=O)[O-])cc2)o1)C(=O)N1CCCCC1` was 3.2%.

On to `COc1cc(CN2CCN(C(=O)c3cc(OC)c(OC)c(OC)c3)CC2)c([N+](=O)[O-])cc1OC`, for which the displacement came out at 7.3%.

Turning to `COC(=O)c1ccccc1NC(=O)/C=C/c1ccccc1Cl`, the displacement is 16.8%.

As to `COCCOC(=O)C1=C(C)NC2=C(C(=O)CCC2)C1c1ccccc1I` (configuration not stated), the displacement amounted to 3.2%. Turning to `CC(=O)Nc1ccc(C2Nc3cc(C)c(C)cc3NC3=C2C(=O)CC(C)(C)C3)cc1` (configuration not stated), the displacement was -3.9%.

In the case of `CC(=O)C1=C(c2ccccc2)S/C(=C2/C(=S)C(C)(C)Nc3ccccc32)S1`, the displacement worked out at 7.4%.

On to `CC(=O)Nc1ccc(-n2c(C)cc(/C=C3\C(=O)NC(=O)N(c4ccc(C)cc4)C3=O)c2C)cc1`, for which the displacement was -10.4%. Under `Cc1ccc(NC(=O)c2cc(C(=O)O)ccc2C(=O)O)c([N+](=O)[O-])c1` stands 11.2%.

For `COc1cccc(/C=C2\SC(=S)N(c3cccc(F)c3)C2=O)c1O`, the displacement is -13.5%. On to `COC(=O)c1cc(S(=O)(=O)Nc2ccc(NC(=O)c3ccccc3)cc2)ccc1Cl`, for which the displacement was -17.9%.

As to `C=C(Br)Cn1c(CCC)nc2ccccc21`, the displacement is -5.8%.

On to `COc1ccc(NC(=O)c2cc3nc(-c4ccc(Cl)cc4)cc(C(F)(F)F)n3n2)cc1OC`, for which the displacement is -4.6%. As for `Cc1ccc(CNC(=O)C(=O)Nc2ccccc2F)cc1`, the displacement came out at 3.4%. As to `O=C(O)CC(NC(=O)c1ccccc1)c1ccc(Cl)cc1` (configuration not stated), the displacement worked out at 11.7%.

As to `Oc1c(N=Nc2cccc(Br)c2)sc2ccccc12`, the displacement is 0.9%. For the compound `COc1ccc(N2C(=O)C(Cl)=C(Nc3ccc(C)c(Cl)c3)C2=O)cc1`, the displacement was determined as 10.1%.

For `Cc1cc(Cl)ccc1OCCOCCN1CCC(C)CC1`, the displacement was -8.9%. Regarding `Cc1cc(C)cc(NC(=O)C(=O)NCc2ccccn2)c1`, the displacement is -3.5%. Under `C/C(=N\NC(=O)CCc1c(C)n[nH]c1C)c1ccc(N)cc1` stands -4%. Turning to `Fc1ccc(-c2cn3ccccc3n2)cc1`, the displacement stood at 3.2%. In the case of `COC(=O)c1cc(-c2ccc(C)s2)nc2ccccc12`, the displacement was 0.7%. In the case of `Cc1ccc(OCCOc2ccc(Cl)cc2/C=C2/SC(=S)N(C)C2=O)cc1`, the displacement is 7.6%.

For `COc1ccc2[nH]c(C)c(C/C=C(/C)Cl)c(=S)c2c1`, the displacement worked out at 7.3%.

`O=c1c(-c2ccccc2)coc2cc(OCc3ccccc3Cl)ccc12`: the displacement was 20.7%. Turning to `Nc1ccc(Cl)c(C(=O)Nc2ccccc2C(=O)O)c1`, the displacement was determined as 18.1%. As to `CCOC(=O)C(=O)Nc1ccc(S(=O)(=O)Nc2nccc(C)n2)cc1`, the displacement was 27.4%. Take `O=C(OCC1CCS(=O)(=O)C1)c1ccccc1` (configuration not stated): the displacement was -7.2%.

For the compound `Cc1c(C)[n+](=O)c2cc(Cl)c(Cl)cc2n1[O-]`, the displacement was -4.5%. Take `COc1cc(/C=N/n2c(SC)nnc(C(C)(C)C)c2=O)ccc1O`: the displacement amounted to 0.1%.

`COc1ccc(-c2nn(-c3ccccc3)cc2/C=C/C(=O)c2ccccc2)cc1Br`: the displacement amounted to 9.3%. `COc1ccc(C(NC(=O)Cc2ccccc2)NC(=O)Cc2ccccc2)cc1`: the displacement is -1.7%.

In the case of `COc1ccccc1C1NC(=S)NC(C)=C1C(=O)Nc1cccc(Cl)c1` (configuration not stated), the displacement amounted to 5.9%. The value for `COC(=O)c1c(C)oc2cc(Br)c(OCC(=O)OC(C)(C)C)cc12` was 8.5%. Take `O=C1/C(=C/c2ccc(O)c(Br)c2)Sc2ccccc21`: the displacement was -53.2%.

Take `COC(=O)c1ccc(NC(=O)CCN2C(=O)c3cccc4cccc(c34)C2=O)cc1`: the displacement stood at 12.3%. As to `CCC1=NN2C(=N)/C(=C/c3ccc(OC)c(OC)c3)C(=O)N=C2S1`, the displacement is -1.4%. For `COc1cc(NC(=O)Cc2cccs2)cc(OC)c1`, the displacement is -6%.

For the compound `Cc1cc(-c2ccccc2)nc(=S)[nH]1`, the displacement is 16.1%. As for `CC(c1nc2ccccc2n1C)C(O)c1ccccc1` (configuration not stated), the displacement was -11.4%.

Regarding `O=C1C2C(c3ccc(Cl)cc3)OC3(C(=O)c4ccccc4C3=O)C2C(=O)N1c1ccc(F)c([N+](=O)[O-])c1` (configuration not stated), the displacement was 5.6%.

Take `COc1cccc2cc(C(=O)Nc3sc4c(c3C#N)CCCC4)c(=O)oc12`: the displacement is 2.5%. `CCCC1=NN(C(=O)Cc2ccccc2)C(O)(C(F)(F)F)C1` (configuration not stated): the displacement was 14%. As to `COc1ccc(Cl)cc1N(CC(=O)N1CCOCC1)S(=O)(=O)c1ccc(C)c([N+](=O)[O-])c1`, the displacement is -9.3%. For the compound `O=C1N=c2ccccc2=C1c1[nH]c(=S)[nH]c1O`, the displacement was 5.4%.

In the case of `Cc1ccc2nc(-c3cccs3)c(NC(=O)c3ccc(Cl)cc3)n2c1`, the displacement stood at 10.3%.

For the compound `COc1ccc(S(=O)(=O)N(CC(=O)N[C@@H]2CCCC[C@H]2O)c2ccc(C)cc2)cc1OC`, the displacement is 0.1%. As to `CCOc1cc(C(=O)NC(c2ccccc2)c2ccccc2)cc(OCC)c1OCC`, the displacement turned out to be 15.9%. Take `O=C(NCc1ccc2c(c1)OCO2)c1ccccc1F`: the displacement came to 14.1%.

Take `O=C(c1ccc(-c2ccc(Br)cc2)o1)N1CCOCC1`: the displacement is -3.1%. With `CC(=C\c1ccccc1)/C=C1/SC(=S)N(c2cccc(F)c2)C1=O`, the displacement came out at 0.7%. `O=C(NC(=S)Nc1ccc2oc(-c3cccc4ccccc34)nc2c1)c1ccco1`: the displacement amounted to 15.1%. With `CC1(C)CC2CC(C)(CN2C(=O)c2cnn3c2NC(c2cccs2)CC3C(F)(F)F)C1` (configuration not stated), the displacement is 5.1%. Turning to `CC(=O)C1=C(C)NC(=O)NC1c1ccc(C)cc1` (configuration not stated), the displacement is -0.9%.

Consider `O=C(/C=C/c1ccc([N+](=O)[O-])cc1)Nc1ccc2ccccc2c1`, for which the displacement was 6.3%.

With `COc1ccc(-c2cc(C(F)(F)F)n3nc(C(=O)NCCc4ccccc4)cc3n2)cc1OC`, the displacement is 44.2%.

`Cc1ccc(NC(=O)c2cc(C(=O)Nc3ccc(C)c(C)c3)cc(N3C(=O)c4ccccc4C3=O)c2)cc1C`: the displacement is 2.6%. As for `c1ccc(C2CCC(N3CCN(C4CCCC4)CC3)CC2)cc1` (configuration not stated), the displacement was -12.8%.

With `COCCOC(=O)C1=C(C)NC(=O)NC1c1cccc(OCc2ccccc2)c1` (configuration not stated), the displacement turned out to be 3.3%.

On to `COc1cc(C2Nc3ccc4ccccc4c3C3=C2C(=O)CC(C)(C)C3)ccc1OCC(=O)O` (configuration not stated), for which the displacement was 6.1%.

Take `CC(C)c1ccc(NC(=O)C(=O)NCCCN2CCOCC2)cc1`: the displacement was determined as 40.6%.

For the compound `Oc1c(/C=C2/C=Nc3ccccc32)sc(=S)n1Cc1ccccc1`, the displacement is -12.8%. `O=C1NC(=S)N(c2ccccc2F)C(=O)/C1=C/c1ccc(OCc2cccc(C(=O)O)c2)cc1`: the displacement amounted to 13.4%. Under `O=[N+]([O-])c1ccc(/C=N/c2nc3c(s2)CCCC3)cc1` stands 6.6%; under `CCOc1ccccc1N(C(C)=O)S(=O)(=O)c1ccc(Cl)cc1`, 12.2%.

On to `CCOC(=O)C1(C(=O)OCC)C(C(=O)OCC)(C(=O)OCC)C1(C(=O)OCC)C(=O)OCC`, for which the displacement turned out to be 9.2%. With `Oc1c(C=C2N=c3ccccc3=N2)sc(=S)n1-c1cccc(C(F)(F)F)c1`, the displacement amounted to 0%. The value for `NC(=O)N=Nc1c(O)n(Cc2ccccc2)c2ccc(Br)cc12` was 1.1%; that for `O=C(Nc1c(Cl)cccc1Cl)c1ccccc1` was 8.4%. On to `O=C(/C=C(\O)c1ccc([N+](=O)[O-])cc1)C(F)(F)F`, for which the displacement was found to be 0.2%. The value for `Cc1cccc(NC(=O)CC(c2ccccc2)c2ccccc2)n1` was 17.2%; that for `O=C1c2cccc(Cl)c2C(=O)c2cccc(Cl)c21` was -1.2%; that for `COc1ccc(CC(=O)Nc2sc3c(c2C#N)CCCC3)cc1OC` was -2%. With `CC(C)(Oc1ccc(-c2ccco2)cc1)C(=O)O`, the displacement was determined as 16.7%. With `CCOc1ccc(NC(=O)CN(c2ccc(Br)cc2)S(C)(=O)=O)cc1`, the displacement worked out at 11.8%. With `COC(=O)C1=C(C)NC2=C(C(=O)CC(C)(C)C2)C1c1cccs1` (configuration not stated), the displacement was -2.8%. For the compound `CCOC(=O)CCNC(=O)CCNC(=O)C(c1ccccc1)c1ccccc1`, the displacement is 1.7%. As for `CNC(=O)CN(c1cccc(OC)c1)S(=O)(=O)c1ccccc1`, the displacement worked out at 0.8%. The value for `COc1c(O)ccc(/C=N/NC(=O)c2cccnc2)c1[N+](=O)[O-]` was 1.2%; that for `COc1ccccc1C(=O)Nc1ccc2c(c1)Cc1ccccc1-2` was 1.1%. On to `NC1=NC(=O)C(CC(=O)Nc2ccccc2C(F)(F)F)S1` (configuration not stated), for which the displacement amounted to 2.8%. In the case of `Oc1ccccc1C1=NOC(O)(C(F)(F)F)C1` (configuration not stated), the displacement came out at 5.1%. In the case of `CN1CCc2c(sc3nc(Nc4ccccc4)n(N)c(=O)c23)C1`, the displacement is 21.2%.

Consider `C=CCc1cc(/C=C2/C(=O)NC(=O)N(c3ccccc3)C2=O)cc(OC)c1O`, for which the displacement was 24.1%. Consider `COc1ccccc1C(=O)NN1C(=O)/C(=C/c2ccc(N(C)C)cc2)SC1=S`, for which the displacement came out at 10.8%. The value for `NNc1nc2sc3c(c2c(=O)n1Cc1ccccc1)CCC3` was -7.1%; that for `Cc1ccc(NC(=O)C(C)N2C(=O)c3ccccc3C2=O)c([N+](=O)[O-])c1` (configuration not stated) was 12.9%; that for `O=C(Nc1cc(Cl)cc(Cl)c1)c1cccc(Cl)c1Cl` was 11.2%. For the compound `O=C1S/C(=C\c2ccc(O)cc2)C(=O)N1Cc1ccccc1`, the displacement was -1.7%. Consider `COC(=O)C1=NN(C(=O)c2ccccc2)C(O)(c2ccc([N+](=O)[O-])cc2)C1` (configuration not stated), for which the displacement stood at 7.3%. For the compound `Cc1ccc(C)c(N=C2NC(=O)/C(=C/c3ccc(N4CCOCC4)cc3)S2)c1`, the displacement is -38%. As to `COc1ccc(CNC(=O)Cn2nc(C)c([N+](=O)[O-])c2C)cc1`, the displacement is -1.4%. As for `COc1ccc(NS(=O)(=O)c2cccs2)cc1OC`, the displacement stood at 0.8%. Under `Cc1ccc(NC(=O)CC2S/C(=N\N=C3/CCCc4ccccc43)NC2=O)cc1Cl` (configuration not stated) stands -4.5%; under `COC(=O)c1cc(C(=O)Nc2cc(C(=O)OC)ccc2C(=O)OC)cc([N+](=O)[O-])c1`, 3.7%. As for `O=c1[nH]c(-c2ccncc2)nc2ccccc12`, the displacement was -1.5%. Under `O=C(O)C1CCCCC1C(=O)Nc1nc(-c2ccc(Br)cc2)cs1` (configuration not stated) stands -8.6%; under `CC(C)NC(=O)CSc1nc2ccccc2[nH]1`, 7.1%; under `CC(=O)Nc1ccc(S(=O)(=O)Nc2c(C)cc(C)cc2C)cc1`, -14.9%.
